# Variants at the background level are over-represented here.
# B1: TPR 5TU (parent)
# chain: GGAUCUUCUCGAUCUAACAAAAAAGACAAAUCUGCCACAAAGCUUGAGAGCAUCUUCGGAUGCAGAGGCGGCAGCCUUCGGUGGCGCGAUAGCGCCAACGUUCUCAACUAUGACACGCAAAACGCGUGCUCCGUUGAAUGGAGUUUAUCAUG
# Variants of: B1
# Experiment: polymerase ribozyme fitness, log enrichment relative to wild type (log ratio); higher = more active; in vitro selection for triplet polymerase activity
# Method in brief: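 Both subunits of a heterodimeric triplet polymerase ribozyme were given their own mutant library, built by PCR and transcribed. Each library was annealed with a biotinylated primer, the partner subunit and triplets, incubated frozen at −7 °C, and its extended constructs gel-excised, captured on streptavidin beads and amplified by RT-PCR, all in one round done in triplicate. Fitness is the logarithm of genotype enrichment relative to wild-type enrichment, with replicates averaged by inverse-variance weighting. That logarithm is base 2, and Illumina-sequenced genotypes needed ≥10 input reads and ≥1 read per output.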
row,Variant,polymerase ribozyme fitness (log ratio)
1,A37G G92A U148C C149G,≤ -4.2
2,C38G C87A C93A U111G A115U A142G,≤ -4.2
3,C36U C43U A52C G58A C76U C114U U135C,≤ -4.2
4,C38U C69A U82A G94U,-3.99
5,A37U C76G C87A G117A G141U G143U,≤ -4.2
6,C38U A49U U61G G83U G133C A142C,≤ -4.2
7,C38A C93G,≤ -4.2
8,C38G C85U A89C,-1.86
9,A39C U53A G68A A89C,≤ -4.2
10,C38U G100A A107C G128U,≤ -4.2
11,A39G A60C G67U C99G G143C,≤ -4.2
12,A37U G67A C75U C85U U139G A150G,≤ -4.2
13,C38G G67A C79G U90G,≤ -4.2
14,A39G G62A G94A A120U G143U,≤ -4.2
15,A39C A64C C93U,≤ -4.2
16,A39C A64U C96U C116A U148C,≤ -4.2
17,C38G A89C C93A C95G U109C,≤ -4.2
18,C38A G50C C54G C76U G94A C105A,≤ -4.2
19,C38U G92U C95G A106U,≤ -4.2
20,C38U C79G G94A C95G A97C,≤ -4.2
21,C38G U77C C123G U139C,≤ -4.2

row,Variant,polymerase ribozyme fitness (log ratio)
1,A37C G86U A142U,≤ -4.2
2,A37C A47U G58A U61G A91G A107C A113G A138U,≤ -4.2
3,C38A U56A G74C G92U U109G,≤ -4.2
4,A39C C96G A137U,≤ -4.2
5,C38A C93G C96U A115G G117A,≤ -4.2
6,C36U C87G U145A,≤ -4.2
7,A37G G74U C87G A115C,≤ -4.2
8,C36U C69G A73G C87A G100U G112C G141C,≤ -4.2
9,C36U C43G G46C U144G,≤ -4.2
10,C36U C76A C93A G117A U146G,≤ -4.2
11,C38U G68A A97G,≤ -4.2
12,A37C A64C G71A C85A G126C,≤ -4.2
13,C38U G86U C118U,-2.07
14,A39C G46A C93G A98C C129G,≤ -4.2
15,A39C U55A G59C C87G A120G,≤ -4.2
16,A37C C87G G133U,≤ -4.2
17,A39G G80U C95U C116G,-3.6
18,A39C U45A A52C G84U,≤ -4.2
19,C38A U55A A106C G117A U146A,-1.67
20,C38U A40U C116U U135A,0.399
21,C38U G68A C85U C108G U146A,≤ -4.2

row,Variant,polymerase ribozyme fitness (log ratio)
1,C36U C38U G83A A121U,-1.34
2,A37G A52C C95U A98C,-3.46
3,A37U G88U C96A,≤ -4.2
4,A37U C51G G88A,≤ -4.2
5,A39C C75G A138C,≤ -4.2
6,A37C C43U G84A C114A U130G U151G,≤ -4.2
7,A39G C63G G70C C87U A91G C99A A120G,≤ -4.2
8,A37U A52G G83A G84A A115U,≤ -4.2
9,A37G C95G C114U A119U A120G,≤ -4.2
10,C38U G62A C96U C129U,-0.672
11,C36U G42A C76U G143A,≤ -4.2
12,A37G U44C A122C G133C A150C,≤ -4.2
13,C38U U44A U53A G58A G88C A122G C149U U151C,≤ -4.2
14,C38U G58C G59A C85A U90A C93G C129G G133A C149G,≤ -4.2
15,C36U A60C C85A C125G U144G,≤ -4.2
16,C38U G48A A49C G71U G81A,≤ -4.2
17,C38U G94U,-0.0168
18,A39G G59C U104A,-3.12
19,A39G A49C A121U,≤ -4.2
20,A39G G48U C75U C87A G143A,≤ -4.2
21,C38U U55G A119G,-0.675

row,Variant,polymerase ribozyme fitness (log ratio)
1,A37G C51U C54A G94C C96A C116A A120G C131G,≤ -4.2
2,A37G G46A A47U C93G C114U,≤ -4.2
3,C38G A39U A60C G92U U101A A113U,≤ -4.2
4,A37G C87U G140U C149G,≤ -4.2
5,A39G U55A G84C C125U,≤ -4.2
6,A39C G84U U90A U111C U146C,≤ -4.2
7,A37U A66U U78G A91G C93U U111G A147C,≤ -4.2
8,C38A G58C C87U,-0.072
9,C38A A66U C99G,≤ -4.2
10,C36U C54G A66C G84U C95A U101G,≤ -4.2
11,A37C A40U G71C C93U C95A A113G,≤ -4.2
12,A39C A41U G84C C85G U102A U130C,≤ -4.2
13,C38U A52C U55G G58A C93U C103G,≤ -4.2
14,C38U U53A C105U,0.169
15,A39U A60U G81A C85A C93U,≤ -4.2
16,A39C A40C G70C G88C U109C,≤ -4.2
17,A37U C96G C116G A138U,≤ -4.2
18,C38U C75G C76A C87G G140U,≤ -4.2
19,C38G G42U G68A U77A C96U G141U,≤ -4.2
20,C38A A47U C51A A60G C95A G141U,≤ -4.2
